Reference: the supplement of paper PMC8728848
This is one part of the list.

Assays:
Experiment in all cases: glycan array binding signal (z-score within array); higher = stronger binding
Conditions in all cases: glycan notation: IUPAC condensed, linker removed
[1] = biological target: Fuc(a1-3)GlcNAc
Summary of the method: (§1)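 Glycan array data were curated from 3228 arrays in the Consortium for Functional Glycomics database and kept only where the protein sequence was available. Glycan names were converted to IUPAC-condensed notation, and columns mapping to the same glycan were averaged. The binding signal is a within-array Z-score, averaged across arrays of the same protein sequence at different concentrations or buffers and across linkers. Negative Z-scores can be read as non-binding.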

[2] = biological target: Fuc(a1-3)[Gal(b1-4)]Glc6S
Summary of the method: as §1

[3] = biological target: Fuc(a1-3)[Gal(b1-4)]GlcNAc
Summary of the method: as §1

[4] = biological target: Fuc(a1-3)[Gal(b1-4)]GlcNAc(b1-2)Man
Summary of the method: as §1

[5] = biological target: Fuc(a1-3)[Gal(b1-4)]GlcNAc(b1-2)Man(a1-3)[Fuc(a1-3)[Gal(b1-4)]GlcNAc(b1-2)Man(a1-6)]Man(b1-4)GlcNAc(b1-4)GlcNAc
Summary of the method: as §1

[6] = biological target: Fuc(a1-3)[Gal(b1-4)]GlcNAc(b1-2)Man(a1-3)[Fuc(a1-3)[Gal(b1-4)]GlcNAc(b1-2)Man(a1-6)]Man(b1-4)GlcNAc(b1-4)[Fuc(a1-6)]GlcNAc
Summary of the method: as §1

[7] = biological target: Fuc(a1-3)[Gal(b1-4)]GlcNAc(b1-3)Gal(b1-3)[Fuc(a1-4)]GlcNAc
Summary of the method: as §1

[8] = biological target: Fuc(a1-3)[Gal(b1-4)]GlcNAc(b1-3)Gal(b1-4)[Fuc(a1-3)]GlcNAc
Summary of the method: as §1

[9] = biological target: Fuc(a1-3)[Gal(b1-4)]GlcNAc(b1-3)Gal(b1-4)[Fuc(a1-3)]GlcNAc(b1-3)Gal(b1-4)[Fuc(a1-3)]GlcNAc
Summary of the method: as §1

[10] = biological target: Fuc(a1-3)[Gal(b1-4)]GlcNAc(b1-3)GalNAc
Summary of the method: as §1

[11] = biological target: Fuc(a1-3)[Gal(b1-4)]GlcNAc(b1-6)GalNAc
Summary of the method: as §1

[12] = biological target: Fuc(a1-3)[Gal(b1-4)]GlcNAc(b1-6)[Gal(b1-3)GlcNAc(b1-3)]Gal(b1-4)Glc
Summary of the method: as §1

[13] = biological target: Fuc(a1-3)[Gal(b1-4)]GlcNAc6S
Summary of the method: as §1

[14] = biological target: Fuc(a1-3)[Gal3S(b1-4)]Glc
Summary of the method: as §1

[15] = biological target: Fuc(a1-3)[Gal3S(b1-4)]GlcNAc
Summary of the method: as §1

[16] = biological target: Fuc(a1-3)[Gal3S(b1-4)]GlcNAc6S
Summary of the method: as §1

[17] = biological target: Fuc(a1-3)[GalNAc(b1-4)]GlcNAc
Summary of the method: as §1

[18] = biological target: Fuc(a1-3)[GalNAc(b1-4)]GlcNAc6S
Summary of the method: as §1

[19] = biological target: Fuc(a1-4)GlcNAc
Summary of the method: as §1

[20] = biological target: Fuc(b1-3)GlcNAc
Summary of the method: as §1

[21] = biological target: Gal(a1-2)Gal
Summary of the method: as §1

[22] = biological target: Gal(a1-3)Gal
Summary of the method: as §1

[23] = biological target: Gal(a1-3)Gal(b1-3)GlcNAc
Summary of the method: as §1

[24] = biological target: Gal(a1-3)Gal(b1-3)GlcNAc(b1-2)Man
Summary of the method: as §1

[25] = biological target: Gal(a1-3)Gal(b1-3)GlcNAc(b1-2)Man(a1-3)[Gal(a1-3)Gal(b1-3)GlcNAc(b1-2)Man(a1-6)]Man(b1-4)GlcNAc(b1-4)GlcNAc
Summary of the method: as §1

[26] = biological target: Gal(a1-3)Gal(b1-3)GlcNAc(b1-3)GalNAc
Summary of the method: as §1

[27] = biological target: Gal(a1-3)Gal(b1-3)GlcNAc(b1-6)GalNAc
Summary of the method: as §1

[28] = biological target: Gal(a1-3)Gal(b1-3)[Fuc(a1-4)]GlcNAc(b1-2)Man(a1-3)[Gal(a1-3)Gal(b1-3)[Fuc(a1-4)]GlcNAc(b1-2)Man(a1-6)]Man(b1-4)GlcNAc(b1-4)GlcNAc
Summary of the method: as §1

[29] = biological target: Gal(a1-3)Gal(b1-4)Glc
Summary of the method: as §1

[30] = biological target: Gal(a1-3)Gal(b1-4)GlcNAc
Summary of the method: as §1

B1: Pa IMPa (Pseudomonas aeruginosa), Q9I5W4 (protein)
chain: MSLSTTAFPSLQGENMSRSPIPRHRALLAGFCLAGALSAQAATQEEILDAALVSGDSSQLTDSHLVALRLQQQVERIRQTRTQLLDGLYQNLSQAYDPGAASMWVLPANPDNTLPFLIGDKGRVLASLSLEAGGRGLAYGTNVLTQLSGTNAAHAPLLKRAVQWLVNGDPGAATAKDFKVSVVGVDKTAALNGLKSAGLQPADAACNALTDASCASTSKLLVLGNGASAASLSATVRARLQAGLPILFVHTNGWNQSSTGQQILAGLGLQEGPYGGNYWDKDRVPSSRTRTRSVELGGAYGQDPALVQQIVDGSWRTDYDWSKCTSYVGRTTCDDVPGLSDFSKRVDVLKGALDAYNQKAQNLFALPGTTSLRLWLLWADAVRQNIRYPMDKAADTARFQETFVADAIVGYVREAGAAQKELGSYAGQRQQSMPVSGSEETLTLTLPSAQGFTAIGRMAAPGKRLSIRIEDAGQASLAVGLNTQRIGSTRLWNTRQYDRPRFLKSPDIKLQANQSVALVSPYGGLLQLVYSGATPGQTVTVKVTGAASQPFLDIQPGEDSSQAIADFIQALDADKADWLEIRSGSVEVHAKVEKVRGSIDKDYGGDVQRFIRELNEVFIDDAYTLAGFAIPNQAKTPAIQQECAARGWDCDSETLHKLPGTQHINVDQYAQCGGGCSGNPYDQTWGLNPRGWGESHELGHNLQVNRLKVYGGRSGEISNQIFPLHKDWRVLREFGQNLDDTRVNYRNAYNLIVAGRAEADPLAGVYKRLWEDPGTYALNGERMAFYTQWVHYWADLKNDPLQGWDIWTLLYLHQRQVDKSDWDANKAALGYGTYAQRPGNSGDASSTDGNDNLLLGLSWLTQRDQRPTFALWGIRTSAAAQAQVAAYGFAEQPAFFYANNRTNEYSTVKLLDMSQGSPAWPFP
glycan array binding signal (z-score) [1]: -0.778
glycan array binding signal (z-score) [2]: -0.367
glycan array binding signal (z-score) [3]: 0.063
glycan array binding signal (z-score) [4]: 0.117
glycan array binding signal (z-score) [5]: -0.168
glycan array binding signal (z-score) [6]: -0.246
glycan array binding signal (z-score) [7]: 0.038
glycan array binding signal (z-score) [8]: -0.199
glycan array binding signal (z-score) [9]: -0.017
glycan array binding signal (z-score) [10]: -0.076
glycan array binding signal (z-score) [11]: -0.32
glycan array binding signal (z-score) [12]: -0.305
glycan array binding signal (z-score) [13]: -0.132
glycan array binding signal (z-score) [14]: -0.077
glycan array binding signal (z-score) [15]: -0.278
glycan array binding signal (z-score) [16]: 0.067
glycan array binding signal (z-score) [17]: -0.488
glycan array binding signal (z-score) [18]: -0.085
glycan array binding signal (z-score) [19]: -0.114
glycan array binding signal (z-score) [20]: -0.299
glycan array binding signal (z-score) [21]: -0.288
glycan array binding signal (z-score) [22]: 0.105
glycan array binding signal (z-score) [23]: 0.654
glycan array binding signal (z-score) [24]: -0.472
glycan array binding signal (z-score) [25]: 0.632
glycan array binding signal (z-score) [26]: -0.048
glycan array binding signal (z-score) [27]: 0.952
glycan array binding signal (z-score) [28]: 0.555
glycan array binding signal (z-score) [29]: -0.354
glycan array binding signal (z-score) [30]: -0.215
